# Measured values published in the BET-seq Pho4 binding data (Le et al. 2018).
# This is one part of the list. The energies were worked out here from pooled read counts, against the library average; single values are noisy.
# Target: T1, Pho4 (S. cerevisiae) (UniProt P07270)
# T1 sequence: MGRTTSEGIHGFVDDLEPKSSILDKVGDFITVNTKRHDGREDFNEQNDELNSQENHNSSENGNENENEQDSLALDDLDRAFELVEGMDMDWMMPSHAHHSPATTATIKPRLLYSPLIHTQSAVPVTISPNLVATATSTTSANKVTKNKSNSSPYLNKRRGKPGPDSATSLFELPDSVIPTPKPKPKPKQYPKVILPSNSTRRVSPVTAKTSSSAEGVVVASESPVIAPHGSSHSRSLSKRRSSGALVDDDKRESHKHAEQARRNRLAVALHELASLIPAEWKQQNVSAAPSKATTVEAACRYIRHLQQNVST
# Assay: relative binding free energy (BET-seq); higher = weaker binding
# Details: reference: library average
row,Sequence,relative binding free energy
1,GCAGACACGTGATGGT,0.18 kcal/mol
2,TGATTCACGTGGGTGG,0.23 kcal/mol
3,TATATCACGTGCGTTG,-0.01 kcal/mol
4,CGGTGCACGTGTCAGG,0.01 kcal/mol
5,TTGAGCACGTGCGATT,0.13 kcal/mol
6,AATAGCACGTGTGTTG,-0.13 kcal/mol
7,AGTCGCACGTGTTTCG,0.14 kcal/mol
8,TGGGTCACGTGTTCTA,0.2 kcal/mol
9,GTTGGCACGTGTTAGA,0.07 kcal/mol
10,GGCGCCACGTGCAGGG,0.09 kcal/mol
11,GGATTCACGTGAAGCT,0.52 kcal/mol
12,CGTAACACGTGGTGTG,-0.18 kcal/mol
13,GTAGGCACGTGCGATG,-0.03 kcal/mol
14,GGGGTCACGTGTTGAG,0.32 kcal/mol
15,GGGTGCACGTGAAGTA,0.19 kcal/mol
16,AATTACACGTGAGGTA,0.51 kcal/mol
17,ATATTCACGTGGTTCT,0.1 kcal/mol
18,ATTATCACGTGGGGTA,0.04 kcal/mol
19,GGGGTCACGTGTGTAC,0.17 kcal/mol
20,GATCGCACGTGTTGTT,0.11 kcal/mol
21,CTTCTCACGTGGTTGG,0.08 kcal/mol
22,TTAAACACGTGGAAGT,0.07 kcal/mol
23,ATTAGCACGTGGTAGG,-0.14 kcal/mol
24,TTAGTCACGTGTGGTG,0.02 kcal/mol
25,CATGGCACGTGTGTGT,-0.05 kcal/mol
26,AGGTACACGTGTAAGA,0.11 kcal/mol

row,Sequence,relative binding free energy
1,GGTAGCACGTGCGTAT,-0.04 kcal/mol
2,GTGCTCACGTGTGTTT,0.34 kcal/mol
3,GGCTTCACGTGGTGTA,0.16 kcal/mol
4,TTTTACACGTGAGCTA,0.39 kcal/mol
5,TGTGTCACGTGATCAG,0.31 kcal/mol
6,AGTGACACGTGCGGGC,-0.09 kcal/mol
7,TGCGCCACGTGTGGTT,-0.1 kcal/mol
8,CTTTGCACGTGGAAGT,0.26 kcal/mol
9,ATGCACACGTGGGAGT,-0.08 kcal/mol
10,ATGGTCACGTGAACGA,0.41 kcal/mol
11,GTGTACACGTGAGTTA,0.14 kcal/mol
12,TATTACACGTGAGCGT,0.05 kcal/mol
13,GGGGGCACGTGAGCAT,0.11 kcal/mol
14,TTGCTCACGTGGTGGT,0.18 kcal/mol
15,AGGCTCACGTGTAGGA,0.24 kcal/mol
16,TAGGGCACGTGGCAAG,-0.31 kcal/mol
17,GGTCACACGTGGGTTG,-0.05 kcal/mol
18,GTTTCCACGTGTGCGT,0.06 kcal/mol
19,TTATTCACGTGCTGAT,0.25 kcal/mol
20,TCGGTCACGTGAGCGT,0.17 kcal/mol
21,ATAGTCACGTGAATAT,0.28 kcal/mol
22,GCTGGCACGTGTTTGT,-0.06 kcal/mol
23,CATGTCACGTGGTGAC,0.06 kcal/mol
24,TTAATCACGTGTAGTA,0.12 kcal/mol
25,CGTTACACGTGGTAAT,0.07 kcal/mol
26,TGATTCACGTGTAACT,0.26 kcal/mol

row,Sequence,relative binding free energy
1,GGGAACACGTGTATTT,0.22 kcal/mol
2,GAAGGCACGTGACTGG,-0.01 kcal/mol
3,GGCTTCACGTGAGGTG,0.41 kcal/mol
4,TAGCACACGTGGGTGT,-0.1 kcal/mol
5,CATGTCACGTGTGTTA,0.1 kcal/mol
6,TTATTCACGTGATATC,0.37 kcal/mol
7,TTGCACACGTGTGGTA,-0.05 kcal/mol
8,GTGGGCACGTGCTAGT,-0.18 kcal/mol
9,TGTATCACGTGAGCTT,0.14 kcal/mol
10,GTATGCACGTGTATTT,0.11 kcal/mol
11,GTGCTCACGTGAATGG,0.29 kcal/mol
12,AAGTTCACGTGCTTTT,0.38 kcal/mol
13,GTGTGCACGTGATAGA,-0.04 kcal/mol
14,CTGTGCACGTGAGGTC,0.16 kcal/mol
15,ATGGGCACGTGTGAGT,0.1 kcal/mol
16,TAGAACACGTGTGGAT,-0.03 kcal/mol
17,TCCTGCACGTGTGGGA,0 kcal/mol
18,GCTCTCACGTGTAGGG,0.24 kcal/mol
19,GGGGTCACGTGAGACT,0.37 kcal/mol
20,TGCAGCACGTGGGGCT,-0.36 kcal/mol
21,TGGCTCACGTGAATTG,0.29 kcal/mol
22,GTGTGCACGTGATGTA,0.14 kcal/mol
23,CGTGGCACGTGCGTTA,-0.07 kcal/mol
24,GGTGACACGTGAGCGT,0.05 kcal/mol
25,TTTAACACGTGTTTTT,0.04 kcal/mol
26,AGGCTCACGTGGTGCT,0.23 kcal/mol

row,Sequence,relative binding free energy
1,CCGGTCACGTGTTTGT,0.04 kcal/mol
2,TGCTGCACGTGGAATG,0.15 kcal/mol
3,TTTGTCACGTGTGTGG,0.19 kcal/mol
4,AGCGGCACGTGGTAGC,-0.14 kcal/mol
5,AGTGCCACGTGGTATT,-0.31 kcal/mol
6,TCGGACACGTGCTGGG,0 kcal/mol
7,TGTCTCACGTGGGATA,0.02 kcal/mol
8,AGGGGCACGTGATGAT,0.11 kcal/mol
9,GTGGCCACGTGGGTGC,-0.25 kcal/mol
10,TGCGGCACGTGATGTG,0.05 kcal/mol
11,ATTTACACGTGAAAGG,0.14 kcal/mol
12,ATATACACGTGTATGA,-0.09 kcal/mol
13,CTAATCACGTGTTTGG,0.09 kcal/mol
14,GGGAACACGTGGCTGG,-0.1 kcal/mol
15,GATTGCACGTGAGGTC,0.27 kcal/mol
16,GCGGACACGTGTAGTT,0.19 kcal/mol
17,ATAATCACGTGGGTAA,-0.04 kcal/mol
18,CGATGCACGTGTAAGG,0.04 kcal/mol
19,AATGACACGTGATTTA,0.16 kcal/mol
20,CTGGTCACGTGAAGTA,0.13 kcal/mol
21,TTAATCACGTGGAGTG,0.17 kcal/mol
22,GGTAACACGTGGAGGC,0.03 kcal/mol
23,GGGGCCACGTGGGTAG,-0.24 kcal/mol
24,AGCATCACGTGGTGGT,-0.15 kcal/mol
25,CTCTTCACGTGAGGTG,0.28 kcal/mol
26,TTCTTCACGTGTTATT,0.18 kcal/mol

row,Sequence,relative binding free energy
1,AGTGTCACGTGTTTGG,0.15 kcal/mol
2,GGTCGCACGTGTGAAT,0.21 kcal/mol
3,GAGGACACGTGGAGGG,0.06 kcal/mol
4,TTCATCACGTGGTAAT,0.18 kcal/mol
5,TTATTCACGTGTCCTG,0.27 kcal/mol
6,TGGGACACGTGAAGGT,0.3 kcal/mol
7,TCAGGCACGTGTTATT,-0.16 kcal/mol
8,AAGAGCACGTGAGGCT,0.09 kcal/mol
9,AGTGTCACGTGGTTGC,0.08 kcal/mol
10,ACGTTCACGTGCTGGT,0.15 kcal/mol
11,TGTCTCACGTGGGGGG,0.08 kcal/mol
12,TGCGTCACGTGTGTGT,0.06 kcal/mol
13,TGCCGCACGTGTGGTT,0.01 kcal/mol
14,TTATGCACGTGGTTAC,-0.16 kcal/mol
15,AGTATCACGTGGGGAA,0.07 kcal/mol
16,ATCTGCACGTGGGTTA,-0.14 kcal/mol
17,TCATTCACGTGAGTAG,0.44 kcal/mol
18,TAAATCACGTGGGAGG,0.12 kcal/mol
19,CTGTACACGTGGTGAT,0.08 kcal/mol
20,ACTATCACGTGGGGTG,-0.12 kcal/mol
21,ATTTCCACGTGATAGT,0.25 kcal/mol
22,GTTCGCACGTGAGGGT,0.27 kcal/mol
23,TGGGTCACGTGGTCAC,0.19 kcal/mol
24,GAAGGCACGTGTATAG,-0.04 kcal/mol
25,ATTTGCACGTGGGACT,-0.12 kcal/mol
26,AGCGGCACGTGGGGTG,-0.26 kcal/mol

row,Sequence,relative binding free energy
1,GGAGGCACGTGTAGTA,-0.05 kcal/mol
2,GGCAACACGTGGTTGG,-0.04 kcal/mol
3,ATTGGCACGTGGGTTA,-0.22 kcal/mol
4,GCGGTCACGTGTTGGA,0.23 kcal/mol
5,ATTAGCACGTGGGCAG,-0.26 kcal/mol
6,TTGACCACGTGGGTAT,-0.17 kcal/mol
7,GAAGGCACGTGAGTGA,0.23 kcal/mol
8,GGTATCACGTGAAGCT,0.41 kcal/mol
9,CTGGGCACGTGAAAAG,0.27 kcal/mol
10,GTCTGCACGTGGATTG,0.02 kcal/mol
11,GGTGTCACGTGTGGAC,0.25 kcal/mol
12,AATAGCACGTGGTGAT,-0.15 kcal/mol
13,ATGGGCACGTGCCTTT,-0.08 kcal/mol
14,GGGTTCACGTGATAGG,0.46 kcal/mol
15,TTTAACACGTGTATAG,-0.01 kcal/mol
16,CGACGCACGTGTGGGT,0.11 kcal/mol
17,GTCAGCACGTGGGCGT,-0.15 kcal/mol
18,TAGAGCACGTGTAGTA,-0.09 kcal/mol
19,ATAGGCACGTGTCGGT,-0.06 kcal/mol
20,GGGTTCACGTGACCTG,0.46 kcal/mol
21,ATAGTCACGTGTAGCG,0.15 kcal/mol
22,TGAGGCACGTGTCTTA,0 kcal/mol
23,GATGGCACGTGCTTTT,0.03 kcal/mol
24,GGTAGCACGTGAGATG,0.11 kcal/mol
25,ATGCCCACGTGGGTGG,-0.31 kcal/mol
26,GTGGTCACGTGTAAGA,0.3 kcal/mol

row,Sequence,relative binding free energy
1,TCTGTCACGTGCGGTA,0.03 kcal/mol
2,TTACCCACGTGTGGTG,0 kcal/mol
3,GTAAACACGTGGAGGT,0.02 kcal/mol
4,ATGATCACGTGAAGTG,0.41 kcal/mol
5,TGAGGCACGTGAGTTT,0.09 kcal/mol
6,CGGTGCACGTGCCGGG,-0.1 kcal/mol
7,CGAAACACGTGTTTGT,0.02 kcal/mol
8,TGAAGCACGTGGCAGG,-0.15 kcal/mol
9,CCATTCACGTGTGGTT,0.41 kcal/mol
10,AAGAGCACGTGGAGGT,-0.24 kcal/mol
11,GGCTTCACGTGATTTA,0.44 kcal/mol
12,AAAAGCACGTGTGAAG,0.12 kcal/mol
13,GTTATCACGTGTAGCA,0.19 kcal/mol
14,CAGGACACGTGAGGTG,0.23 kcal/mol
15,GTTGACACGTGGGTCA,-0.17 kcal/mol
16,TTGAGCACGTGTTATT,-0.06 kcal/mol
17,TTGGTCACGTGGCCTG,0 kcal/mol
18,TGCGGCACGTGTATGT,-0.01 kcal/mol
19,CTTTACACGTGTAGTT,0.17 kcal/mol
20,CTCGGCACGTGTTAGT,-0.11 kcal/mol
21,GTCTTCACGTGTGTAA,0.28 kcal/mol
22,TGGTACACGTGGTCGA,-0.04 kcal/mol
23,AAGTTCACGTGTATAT,0.18 kcal/mol
24,CGGGGCACGTGTTAGC,-0.05 kcal/mol
25,TGGGTCACGTGTAATC,0.15 kcal/mol
26,GATCTCACGTGGGGTG,0.33 kcal/mol

row,Sequence,relative binding free energy
1,TATAGCACGTGCTATG,-0.06 kcal/mol
2,TATTGCACGTGTTAGC,-0.09 kcal/mol
3,CGGAGCACGTGGGAAG,-0.05 kcal/mol
4,GAATGCACGTGACGGG,0.22 kcal/mol
5,GTGGGCACGTGTTTTG,0.04 kcal/mol
6,TTGTTCACGTGGCAGT,0.2 kcal/mol
7,TGCGGCACGTGGAAGG,-0.01 kcal/mol
8,TATGTCACGTGTGCGC,0.15 kcal/mol
9,TTTGTCACGTGAGCGT,0.18 kcal/mol
10,AGGATCACGTGCTGGA,0.23 kcal/mol
11,TAGTGCACGTGTGAAT,0.02 kcal/mol
12,GTTGACACGTGTAGTA,0.19 kcal/mol
13,ACTGTCACGTGTTCTT,0.13 kcal/mol
14,GTTAGCACGTGGTTAG,-0.1 kcal/mol
15,GTTGACACGTGAGTTA,0.24 kcal/mol
16,TTTGCCACGTGATATT,0 kcal/mol
17,GTATGCACGTGTTGAA,0.1 kcal/mol
18,GGTCTCACGTGCGTGA,0.22 kcal/mol
19,GTTACCACGTGTTGGT,0.07 kcal/mol
20,GGTGGCACGTGACACG,0.05 kcal/mol
21,GTCGTCACGTGTAGGG,0 kcal/mol
22,GGAGGCACGTGAGTAC,0.19 kcal/mol
23,TGCTTCACGTGGGTCA,0.02 kcal/mol
24,CGGGTCACGTGAAGAG,0.44 kcal/mol
25,CTTGTCACGTGTGATA,0.02 kcal/mol
26,ATTGTCACGTGCGTGA,0 kcal/mol

row,Sequence,relative binding free energy
1,AAATGCACGTGGTAAG,0.02 kcal/mol
2,GGAGGCACGTGGAGCA,-0.09 kcal/mol
3,GTAAGCACGTGATGGG,0.09 kcal/mol
4,AGGGGCACGTGGTGAA,-0.1 kcal/mol
5,ATAGACACGTGGTGAT,0.01 kcal/mol
6,GTATGCACGTGTGTAC,0.05 kcal/mol
7,CAGATCACGTGGGGGG,0.04 kcal/mol
8,GACGGCACGTGTGTTG,0.05 kcal/mol
9,TATTACACGTGGGTCT,-0.12 kcal/mol
10,GGGGGCACGTGTAATC,0.03 kcal/mol
11,ATTGCCACGTGTGGAT,-0.1 kcal/mol
12,ATGGGCACGTGGTCTC,-0.13 kcal/mol
13,GGTGGCACGTGTTCGG,0 kcal/mol
14,TGAATCACGTGGTGTG,0.05 kcal/mol
15,TGTCACACGTGAAGGG,0.14 kcal/mol
16,AGTCGCACGTGGTGTC,-0.07 kcal/mol
17,CGGGCCACGTGGGGCA,-0.35 kcal/mol
18,CTTGGCACGTGTAGAG,-0.09 kcal/mol
19,AGTAGCACGTGTGAAA,0.19 kcal/mol
20,CCGGGCACGTGTGGGC,0.01 kcal/mol
21,TGGACCACGTGAGGGG,0.05 kcal/mol
22,CATGGCACGTGCTGTG,-0.12 kcal/mol
